In all, about 310,000 compounds went through this assay and about 2,200 (0.71%) showed an effect of 50% or more. Effects have a minus sign here. This is one part of the list.

56 compounds from PMC4336329 (PLoS ONE, 2015) can be followed below.

The assay deals with human ether-à-go-go-related gene (hERG) potassium channel (human, UniProt Q12809). Nature of the assay: primary screen, population patch clamp on CHO cells stably expressing hERG.
Chain of human ether-à-go-go-related gene (hERG) potassium channel (Q12809 whole entry, looked up): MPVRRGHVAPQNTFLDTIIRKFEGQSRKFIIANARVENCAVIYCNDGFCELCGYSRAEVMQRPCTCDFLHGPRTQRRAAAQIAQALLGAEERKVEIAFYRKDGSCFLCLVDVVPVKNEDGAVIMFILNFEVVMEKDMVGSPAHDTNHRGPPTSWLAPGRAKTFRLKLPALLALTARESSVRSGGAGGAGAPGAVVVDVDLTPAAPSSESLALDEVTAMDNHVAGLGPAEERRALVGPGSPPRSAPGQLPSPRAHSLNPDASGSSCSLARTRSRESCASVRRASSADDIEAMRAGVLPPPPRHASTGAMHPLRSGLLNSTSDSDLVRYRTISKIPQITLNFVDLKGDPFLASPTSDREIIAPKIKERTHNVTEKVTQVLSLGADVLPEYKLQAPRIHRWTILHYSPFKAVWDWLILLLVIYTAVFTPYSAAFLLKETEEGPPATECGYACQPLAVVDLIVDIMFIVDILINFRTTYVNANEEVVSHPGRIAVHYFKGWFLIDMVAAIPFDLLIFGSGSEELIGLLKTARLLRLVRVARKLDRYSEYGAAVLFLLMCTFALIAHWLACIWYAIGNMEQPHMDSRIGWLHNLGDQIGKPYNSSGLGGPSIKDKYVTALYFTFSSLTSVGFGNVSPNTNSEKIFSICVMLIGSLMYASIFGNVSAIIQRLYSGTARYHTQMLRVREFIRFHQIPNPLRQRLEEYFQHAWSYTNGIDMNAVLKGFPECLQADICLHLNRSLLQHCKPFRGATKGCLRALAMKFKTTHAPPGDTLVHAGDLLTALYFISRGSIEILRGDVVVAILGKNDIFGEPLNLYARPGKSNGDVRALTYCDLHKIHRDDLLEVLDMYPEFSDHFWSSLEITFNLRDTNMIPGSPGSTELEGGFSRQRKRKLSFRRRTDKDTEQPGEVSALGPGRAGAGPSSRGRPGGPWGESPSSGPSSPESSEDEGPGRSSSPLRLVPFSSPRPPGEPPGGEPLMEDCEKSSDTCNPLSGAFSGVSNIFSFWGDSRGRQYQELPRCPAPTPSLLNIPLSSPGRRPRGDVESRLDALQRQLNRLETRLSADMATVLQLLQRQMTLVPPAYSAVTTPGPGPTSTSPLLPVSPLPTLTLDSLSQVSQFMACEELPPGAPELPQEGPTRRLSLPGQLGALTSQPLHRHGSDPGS
As to `Cn1c(=O)oc2cc(S(=O)(=O)CCC(=O)N3CCN(c4ccccc4)CC3)ccc21`, the “hERG current change (%, negative = inhibition) at 1uM” value is given as 13.9%. For `CC(=O)Nc1ccc(-c2csc(Nc3cc(C)ccn3)n2)cc1`, the “hERG current change (%, negative = inhibition) at 1uM” value was found to be 7.02%.

In the case of `COc1ccc(CC2(C)OC(c3ccncc3)=NN2C(C)=O)cc1` (centres unmarked), the “hERG current change (%, negative = inhibition) at 1uM” value was -2.54%. For `Cn1c(=O)c2c(ncn2CC(=O)OCC(=O)Nc2cc(Cl)ccc2Cl)n(C)c1=O`, the “hERG current change (%, negative = inhibition) at 1uM” value came out at 6.5%.

On to `Cc1c(C)[n+](=O)c(-c2cccs2)c(C)n1[O-]`, for which the “hERG current change (%, negative = inhibition) at 1uM” value is 17.7%. `Cc1cccc(C(=O)NC2CCN(C(=O)N3CCOCC3)CC2)c1`: the “hERG current change (%, negative = inhibition) at 1uM” value came out at 20.7%.

`COCON1C(=O)CN(C(C)=O)C1c1ccc(Cl)cc1Cl` (centres unmarked): the “hERG current change (%, negative = inhibition) at 1uM” value was 11.7%. Consider `COc1cc(C(=O)N2CCN(C(=O)COc3ccc4ccccc4c3)CC2)cc(OC)c1OC`, for which the “hERG current change (%, negative = inhibition) at 1uM” value was -54%. On to `Cc1cc(S(N)(=O)=O)c(N)c(S(N)(=O)=O)c1`, for which the “hERG current change (%, negative = inhibition) at 1uM” value stood at 3.24%.

`O=c1cc(-c2ccco2)oc2c1ccc1ccccc12`: the “hERG current change (%, negative = inhibition) at 1uM” value is on record as 13.7%.

As to `CCc1noc(C)c1C(=O)N1CCCSC1=Nc1ccccc1Cl`, the “hERG current change (%, negative = inhibition) at 1uM” value is reported as 5.35%. For `O=C1/C(=C/c2ccc3c(c2)OCO3)N2CCC1CC2`, the “hERG current change (%, negative = inhibition) at 1uM” value is given as 10.6%. The value for `O=C(c1ccc2c(c1)N(Cc1ccc(F)cc1)CCS2)N1CCOCC1` was 2.29%. The result for `COCCOC(=O)c1c(C)oc2ccc(OC(=O)c3ccco3)cc12` reads 4.56%; that for `C(=N\Nc1ccc2nncn2n1)/c1ccco1`, 13%; that for `O=C(CSCc1c(Cl)cccc1Cl)NCc1cccnc1`, 8.81%. As for `Cc1ccc(-n2ncc3c2CCCC3NC(=O)CCN2CCCC2=O)cc1C` (centres unmarked), the “hERG current change (%, negative = inhibition) at 1uM” value was 7.02%. The value for `O=C(CCCN1C(=O)c2ccccc2C1=O)Nc1ccc(S(=O)(=O)N2CCOCC2)cc1` was 9.6%; that for `CN(C)CCCOC(=O)N1c2ccccc2C=Cc2ccccc21.Cl` was 15.9%; that for `OCCNC(=S)Nc1cccc(Cl)c1Cl` was 10.1%. On to `CCCc1cc(=O)[nH]c(SCC(=O)Nc2nc(-c3ccccc3)cs2)n1`, for which the “hERG current change (%, negative = inhibition) at 1uM” value amounted to 14.7%. For the compound `O=C(/C=C/c1ccc2ccccc2c1)c1ccoc1`, the “hERG current change (%, negative = inhibition) at 1uM” value came to 14%. Turning to `CC(C)CC(COCc1ccc(F)cc1)N1CCN(C(=O)c2cccc(C(F)(F)F)c2)CCC1=O` (centres unmarked), the “hERG current change (%, negative = inhibition) at 1uM” value was -19.8%. On to `O=C1CCCC/C1=C/Nc1cccc(C(F)(F)F)c1`, for which the “hERG current change (%, negative = inhibition) at 1uM” value came out at 16.1%. For `Cc1ccc(C(=O)OCC(=O)NCCC2=CCCCC2)s1`, the “hERG current change (%, negative = inhibition) at 1uM” value is on record as 14.4%. The result for `C=CCNC(=O)/C(C#N)=C/c1c(N2CCN(c3ccc(OC)cc3)CC2)nc2c(C)cccn2c1=O` reads -0.425%. `COc1cccc(NC(=S)NC(=O)Cc2ccccc2)c1`: the “hERG current change (%, negative = inhibition) at 1uM” value is recorded as -3.88%.

On to `c1ccc(C[C@H]2CNCCN2CCC23CC4CC(CC(C4)C2)C3)cc1`, for which the “hERG current change (%, negative = inhibition) at 1uM” value turned out to be 5.2%. Consider `Cn1cccc1/C=N\NC(=O)C1COc2ccccc2O1` (centres unmarked), for which the “hERG current change (%, negative = inhibition) at 1uM” value is given as 13.7%.

Turning to `COc1ccccc1NC(=O)CCC(=O)Nc1cc(OC)c(NC(=O)c2cccs2)cc1OC`, the “hERG current change (%, negative = inhibition) at 1uM” value stood at 9.82%.

On to `CC(C)CCOC(=O)C1C2C=CC3(CN(Cc4cccs4)C(=O)C13)O2` (centres unmarked), for which the “hERG current change (%, negative = inhibition) at 1uM” value is 13.8%. The value for `CC12CC[C@H]3[C@@H](CCC4(O)C[C@H](O)CCC34/C=N/NC(=O)c3ccccc3[N+](=O)[O-])C1(O)CCC2C1=CC(=O)OC1` (some centres unmarked) was 8.81%; that for `COC(=O)c1[nH]c2cccc(OC)c2c1NC(=O)CCN1CCC(C)CC1` was -5.14%; that for `CCCCCC(=O)Nc1cccc(C2=NOC3(C2)C[C@@H](C(N)=O)N(C(=O)C2(C)CC2)C3)c1` (some centres unmarked) was 18.5%. For `COc1ccccc1Oc1cc(-n2nc(C)cc2C)ncn1`, the “hERG current change (%, negative = inhibition) at 1uM” value is listed as 4.77%.

Regarding `Cc1ccc(OCCSc2nc3ncnc(N)c3[nH]2)cc1`, the “hERG current change (%, negative = inhibition) at 1uM” value came to 5.82%.

For `O=C(CCCCCn1c(=S)[nH]c2ccc(N3CCOCC3)cc2c1=O)NCc1ccc2c(c1)OCO2`, the “hERG current change (%, negative = inhibition) at 1uM” value was 4.36%. As to `Cc1ccccc1C(=O)NCC(c1ccco1)N1CCc2ccccc21` (centres unmarked), the “hERG current change (%, negative = inhibition) at 1uM” value was -7.05%. The result for `Cc1oc(-c2cccs2)nc1CS(=O)CC(=O)NCc1ccc2c(c1)OCO2` (centres unmarked) reads -1.28%.

Turning to `COc1cccc(N2CCN(S(=O)(=O)c3ccc(-n4cnnn4)cc3)CC2)c1`, the “hERG current change (%, negative = inhibition) at 1uM” value was 15.5%. The result for `CN(c1ccc(OCC(=O)OCC(=O)Nc2ccc(F)cc2)cc1)S(=O)(=O)c1ccc(Cl)cc1` reads -30.7%; that for `Cn1c(=O)n(C)c2cc(NC(=O)c3ccccc3NS(C)(=O)=O)ccc21`, 6.98%; that for `CSc1cccc(NC(=O)CN(C)S(=O)(=O)c2cnc[nH]2)c1`, 13.6%. The result for `O=C1CN(C(=O)c2ccc3nc(Cc4cccc(Cl)c4)oc3c2)CCN1` reads 12.3%; that for `CCC(C)NC(=O)c1ccc(CSCc2cccc(F)c2)o1` (centres unmarked), 1.86%. With `COc1ccc(C)cc1S(=O)(=O)N1CCN(c2cccc(C(F)(F)F)c2)CC1`, the “hERG current change (%, negative = inhibition) at 1uM” value is given as 12.1%. The result for `CC1Cc2cc(S(=O)(=O)N3CCCCC3C)ccc2N1C(=O)C1CCC1` (centres unmarked) reads 16.1%.

Consider `CC(=O)N1CC(=O)Nc2ccc(Cl)cc2C1c1ccccc1` (centres unmarked), for which the “hERG current change (%, negative = inhibition) at 1uM” value was 14.4%. The value for `CCCNC(=O)C1(CC2CC(c3ccccc3)=NO2)CCN(C(=O)c2ccccc2)CC1` (centres unmarked) was -49.9%; that for `CCCCCC(=O)NC(NC(=S)Nc1ccc(S(N)(=O)=O)cc1)C(Cl)(Cl)Cl` (centres unmarked) was 16.1%. The value for `COc1ccc2c(C)c(C(=O)O)oc2c1` was 9.64%.

Take `O=C(O)c1ccc(Sc2nnc(-c3cccc(Br)c3)o2)c([N+](=O)[O-])c1`: the “hERG current change (%, negative = inhibition) at 1uM” value is given as 6.51%. Take `Cc1ccc(C2C(C#N)=C(N)Oc3c2oc(CO)cc3=O)o1` (centres unmarked): the “hERG current change (%, negative = inhibition) at 1uM” value is listed as 9.74%. For `CCOC(=O)C1=C(C)NC(=O)NC1c1ccoc1` (centres unmarked), the “hERG current change (%, negative = inhibition) at 1uM” value is given as 4.7%.

Consider `O=S(=O)(NCc1ccccc1)NCc1cccc(C(F)(F)F)c1`, for which the “hERG current change (%, negative = inhibition) at 1uM” value was determined as 8.71%. In the case of `Cc1nc2cc(NS(=O)(=O)c3cccc(F)c3)ccc2s1`, the “hERG current change (%, negative = inhibition) at 1uM” value was 9.23%.
